Measurements: PMC5762908 (Scientific Reports, 2018)
Like-named read-outs stand apart in the source and are kept apart here.

What was measured:
HCT116 cells [1] = details: for DNA content (%) G0/G1 / DNA content (%) G2/M / DNA content (%) S / DNA content (%) Sub-G0/G1: HCT116 cells
[2] = system: HCT116 (human colon carcinoma); assay: cells; details: HCT-116, 72 h, read-out: IC50 in µM, HCT116
[3] = system: HL-60 (human promyelocytic leukemia)
[4] = system: K-562 (human chronic myelogenous leukemia); assay: cells; details: K562, 72 h, read-out: IC50 in µM, K562
[5] = system: K-562 (human chronic myelogenous leukemia)
[6] = system: HL-60 (human promyelocytic leukemia); assay: cells; details: HL-60, 72 h, read-out: IC50 in µM, HL-60
[7] = system: HSC-3 (human oral squamous cell carcinoma); assay: cells; details: HSC-3, 72 h, read-out: IC50 in µM, HSC3
[8] = system: HSC-3 (human oral squamous cell carcinoma)
[9] = system: HepG2 (human hepatocellular carcinoma)
HCT116 cells [10] = details: HCT116, trypan blue, 24 and 48 h; DOX 1 µM, OXA 2.5 µM
Protocol: TBE assay was used to confime the cytotoxic effect of the complex tested. The number of viable cells and non-viable cells (take up trypan blue) were counted. Briefly, 90 μL was removed from the cell suspension and 10 μL of trypan blue (0.4%) was added. Cell counting was performed using a light microscope with a hemocytometer filled with an aliquot of the homogenized cell suspension.

[11] = system: cancer multicellular spheroids formed from HCT116 cells; assay: 3D multicellular spheroids culture, alamar blue assay; type: cell-based, human; details: 3D multicellular spheroids, alamar blue assay, 72 h
Protocol: Cell viability was quantified using the alamar blue assay, according to Ahmed et al.[28]. Cells were inserted in 96-well plates for all experiments (7 × 10^4 cells/mL for adherent cells or 3 × 10^5 cells/mL for suspended cells in 100 μL of medium). After 24 h, the complex was dissolved in dimethyl sulfoxide (DMSO, Sigma-Aldrich co.) and added to each well and incubated for 72 h. […] Four (for cell lines) or 24 h (for PBMCs) before the end of incubation, 20 μL of a stock solution (0.312 mg/mL) of the alamar blue (resazurin, Sigma-Aldrich Co.) were added to each well. Absorbance at 570 nm and 600 nm was measured using the SpectraMax 190 Microplate Reader (Molecular Devices, Sunnyvale, CA, EUA), and the drug effect was quantified as the percentage of control absorbance.
Briefly, 100 μL of a solution of cells (0.5 × 10^6 cells/mL) were inserted in 96-well plate with a cell-repellent surface (Greiner Bio-One; Kremsmünster, Austria) and cultured in complete medium plus 3% matrigel (BD Biosciences; San Jose, CA, EUA). Spheroids with stable structures had formed after three days. Then, the spheroids were exposed to a range of drug concentrations for 72 h, after which the cell viability was quantified by alamar blue assay as described above.

[12] = system: MCF7 (human breast carcinoma); assay: cells; details: MCF7, 72 h, read-out: IC50 in µM, MCF7
B16-F10 (mouse melanoma) [13] = assay: cells; details: B16-F10, 72 h, read-out: IC50 in µM, B16-F10
B16-F10 (mouse melanoma) [14] = system: B16-F10 (mouse melanoma)
[15] = system: MCF7 (human breast carcinoma)
[16] = system: HepG2 (human hepatocellular carcinoma); assay: cells; details: HepG2, 72 h, read-out: IC50 in µM, HepG2
[17] = system: HCT116 (human colon carcinoma)
[18] = system: SCC-9 (human oral squamous cell carcinoma)
[19] = system: SCC-9 (human oral squamous cell carcinoma); assay: cells; details: SCC-9, 72 h, read-out: IC50 in µM, SCC9

Compound: COc1cccc2c1C(=O)c1c(O)c3c(c(O)c1C2=O)C[C@@](O)(C(=O)CO)C[C@@H]3O[C@H]1C[C@H](N)[C@H](O)[C@H](C)O1 [DOX, Doxorubicin]
- DNA content (%) G0/G1 (HCT116 cells [1]; 24 h incubation, 1 µM): 28.0 ± 6.3%
- DNA content (%) G2/M (HCT116 cells [1]; 24 h incubation, 1 µM): 44.1 ± 3.4 %
- DNA content (%) S (HCT116 cells [1]; 24 h incubation, 1 µM): 10.0 ± 2.5%
- DNA content (%) Sub-G0/G1 (HCT116 cells [1]; 24 h incubation, 1 µM): 9.7 ± 2.5%
- DNA content (%) G0/G1 (HCT116 cells [1]; 48 h incubation, 1 µM): 22.5 ± 4.0 %
- DNA content (%) G2/M (HCT116 cells [1]; 48 h incubation, 1 µM): 44.2 ± 4.4 %
- DNA content (%) S (HCT116 cells [1]; 48 h incubation, 1 µM): 14.9 ± 2.5%
- DNA content (%) Sub-G0/G1 (HCT116 cells [1]; 48 h incubation, 1 µM): 18.3 ± 2.5%
- IC50 [2]: 0.5 µM
- Selectivity index (SI) ([3]; SI = IC50[MRC-5]/IC50[HL-60]): 3.2
- Selectivity index (SI) ([3]; SI = IC50[PBMC]/IC50[HL-60]): 10.2
- IC50 [4]: 0.2 µM
- Selectivity index (SI) ([5]; SI = IC50[MRC-5]/IC50[K-562]): 8
- Selectivity index (SI) ([5]; SI = IC50[PBMC]/IC50[K-562]): 25.5
- IC50 [6]: 0.5 µM
- IC50 [7]: 0.8 µM
- Selectivity index (SI) ([8]; SI = IC50[MRC-5]/IC50[HSC-3]): 2
- Selectivity index (SI) ([8]; SI = IC50[PBMC]/IC50[HSC-3]): 6.4
- Selectivity index (SI) ([9]; SI = IC50[MRC-5]/IC50[HepG2]): 5.3
- Selectivity index (SI) ([9]; SI = IC50[PBMC]/IC50[HepG2]): 17
- Number of viable cells (in words) (HCT116 cells [10]): reduced the number of viable cells
- IC50 ([11]; Homo sapiens, HCT-116): 3.5 µM
- IC50 [12]: 1.4 µM
- IC50 (B16-F10 (mouse melanoma) [13]): 0.2 µM
- Selectivity index (SI) (B16-F10 (mouse melanoma) [14]; SI = IC50[MRC-5]/IC50[B16-F10]): 8
- Selectivity index (SI) (B16-F10 (mouse melanoma) [14]; SI = IC50[PBMC]/IC50[B16-F10]): 25.5
- Selectivity index (SI) ([15]; SI = IC50[MRC-5]/IC50[MCF7]): 1.1
- Selectivity index (SI) ([15]; SI = IC50[PBMC]/IC50[MCF7]): 3.6
- IC50 [16]: 0.3 µM
- Selectivity index (SI) ([17]; SI = IC50[MRC-5]/IC50[HCT116]): 3.2
- Selectivity index (SI) ([18]; SI = IC50[MRC-5]/IC50[SCC-9]): 4
- Selectivity index (SI) ([18]; SI = IC50[PBMC]/IC50[SCC-9]): 12.8
- IC50 [19]: 0.4 µM

Compound: O=C1[O][Pt]2([NH][C@@H]3CCCC[C@H]3[NH]2)[O]C1=O [OXA, oxaliplatin]
- Cell cycle phase accumulation / arrest, in words (HCT116 cells [1]): cell cycle arrest at the phase G2/M
- DNA content (%) G0/G1 (HCT116 cells [1]; 24 h incubation, 2.5 µM): 32.4 ± 3.7%
- DNA content (%) G2/M (HCT116 cells [1]; 24 h incubation, 2.5 µM): 41.6 ± 1.6 %
- DNA content (%) S (HCT116 cells [1]; 24 h incubation, 2.5 µM): 13.5 ± 3.1%
- DNA content (%) Sub-G0/G1 (HCT116 cells [1]; 24 h incubation, 2.5 µM): 8.8 ± 3.5%
- DNA content (%) G0/G1 (HCT116 cells [1]; 48 h incubation, 2.5 µM): 36.2 ± 2.6%
- DNA content (%) G2/M (HCT116 cells [1]; 48 h incubation, 2.5 µM): 38.0 ± 3.4%
- DNA content (%) S (HCT116 cells [1]; 48 h incubation, 2.5 µM): 7.6 ± 0.4%
- DNA content (%) Sub-G0/G1 (HCT116 cells [1]; 48 h incubation, 2.5 µM): 17.7 ± 1.9%
- Selectivity index (SI) ([3]; SI = IC50[MRC-5]/IC50[HL-60]): 2.8
- Selectivity index (SI) ([3]; SI = IC50[PBMC]/IC50[HL-60]): 24.8
- IC50 ([3]; read-out: IC50 in µM, HL-60, alamar blue assay, 72 h incubation, 2D culture): 0.5 µM
- Selectivity index (SI) ([5]; SI = IC50[MRC-5]/IC50[K-562]): 1.2
- Selectivity index (SI) ([5]; SI = IC50[PBMC]/IC50[K-562]): 10.3
- IC50 ([5]; read-out: IC50 in µM, K562, alamar blue assay, 72 h incubation, 2D culture): 1.2 µM
- IC50 ([8]; read-out: IC50 in µM, HSC3, alamar blue assay, 72 h incubation, 2D culture): 3.4 µM
- Selectivity index (SI) ([9]; SI = IC50[MRC-5]/IC50[HepG2]): 0.9
- Selectivity index (SI) ([9]; SI = IC50[PBMC]/IC50[HepG2]): 8.3
- IC50 ([9]; read-out: IC50 in µM, HepG2, alamar blue assay, 72 h incubation, 2D culture): 1.5 µM
- Number of viable cells (in words) (HCT116 cells [10]): reduced the number of viable cells
- IC50 [11]: 4.6 µM
- Selectivity index (SI) (B16-F10 (mouse melanoma) [14]; SI = IC50[MRC-5]/IC50[B16-F10]): 2
- Selectivity index (SI) (B16-F10 (mouse melanoma) [14]; SI = IC50[PBMC]/IC50[B16-F10]): 17.7
- IC50 (B16-F10 (mouse melanoma) [14]; read-out: IC50 in µM, B16-F10, alamar blue assay, 72 h incubation, 2D culture): 0.7 µM
- IC50 ([15]; read-out: IC50 in µM, MCF7, alamar blue assay, 72 h incubation, 2D culture): 6 µM
- IC50 ([17]; read-out: IC50 in µM, HCT116, alamar blue assay, 72 h incubation, 2D culture): 4.3 µM
